Read-outs that look alike come from different tables or passages of the source. Each block holds one molecule with its values, some of them ahead of it. *1 amine or outer side, *2 acyl side, *3 side chain or, on linkers, in order; H or OH if unused. Where a SMILES comes first, the peptide text is derived from it. [ ]: non-standard residue; d: D form. The star is where a group is joined. ξ: configuration not given here. Isobutyloxycarbonyl = CC(C)COC(=O)*; Hyp = O=C(O)[C@@H]1C[C@@H](O)CN1; X2 = CCCC(N[*:1])C(=O)C(=O)[*:2]; ξChg = NC(C(=O)O)C1CCCCC1; ξV = CC(C)C(N)C(=O)O; Bn = c1ccc(C*)cc1
Molecular target: HCV NS3/NS4A protease (strain 1a) (Hepatitis C virus genotype 1a, UniProt P27958)
Experiment: biochemical
[1] = Table 6, HCV NS3/NS4A protease, 30° C., pH 6.5, read-out: Ki*
[2] = Table 5, HCV NS3/NS4A protease, spectrophotometric assay, 30° C., pH 6.5, read-out: Ki* Range

Ki (Table 5, HCV NS3/NS4A protease, 30° C., pH 6.5, read-out: Ki* Range): 1 to 100 nM
SMILES: C=CCCC(NC(=O)[C@@H]1[C@@H]2[C@H](CN1C(=O)[C@@H](NC(=O)NC(C)(C)C)C(C)(C)C)C2(C)C)C(=O)C(=O)NCCC(=O)OC(C)(C)C (stereo partly shown)

Ki [1]: 101 to 1000 nM
SMILES: CCCC(NC(=O)[C@@H]1[C@@H]2[C@H](CN1C(=O)[C@@H](NC(=O)OC(C)(C)C)C1Cc3ccccc3C1)C2(C)C)C(=O)C(=O)NCCC(=O)NC(C)(C)C (stereo partly shown)

SMILES: CCCC(NC(=O)[C@@H]1C[C@@H](OCc2ccccc2)CN1C(=O)C(NC(=O)OCC(C)C)C(C)C)C(=O)C(=O)NCC(=O)NC(C(N)=O)C1CCCCC1 (stereo partly shown) (Isobutyloxycarbonyl-[ξV][Hyp](Bn)[X2]G[ξChg]-NH2)
Ki (Compounds prepared by Solid Phase Synthesis, Table 3, read-out: Ki* CLASS): 101 to 1000 nM

Ki (HCV protease continuous assay results, Table 1, read-out: Ki* Range): > 1000 nM
SMILES: C=CCCC(NC(=O)[C@@H]1[C@@H]2[C@H](CN1C(=O)[C@@H](NC(=O)OC(C)(C)C)C(C)(C)C)C2(C)C)C(=O)C(=O)N1CC=CCC1 (stereo partly shown) [Example 355]

Ki [2]: 101 to 1000 nM
SMILES: C=CCCC(NC(=O)[C@@H]1[C@@H]2[C@H](CN1C(=O)[C@@H](NC(=O)OC(C)(C)C)C1CCN(C(=O)OCc3ccccc3)CC1)C2(C)C)C(=O)C(=O)NCC=C (stereo partly shown)

Ki [2]: 1 to 100 nM
SMILES: C=CCC(NC(=O)[C@@H]1[C@H]2[C@@H](CN1C(=O)[C@@H](NC(=O)OC(C)(C)C)C(C)(C)C)C2(C)C)C(=O)C(=O)NCC(=O)NCc1ccc(OC)cc1 (stereo partly shown)

Ki [1]: 1 to 100 nM
SMILES: C=CCNC(=O)C(=O)C(CCC(F)(F)F)NC(=O)[C@@H]1[C@@H]2[C@H](CN1C(=O)[C@@H](NC(=O)OC(C)(C)C)C1Cc3ccccc3C1)C2(C)C (stereo partly shown)

Source: US7592316B2, “Peptides as NS3-serine protease inhibitors of hepatitis C virus” (Schering Corporation, priority 2000, dated 2009)
